According to patent publication US20240076343A1:

What was measured:
[1] = molecular target: high-affinity hIL-2 receptor (IL-2Rαβγ) on NK-92 cells (human) (UniProt P01589); assay: cell-based or functional assay
[2] = molecular target: intermediate affinity hIL-2 receptor complex (IL-2Rβγ) on TF1+IL-2Rβ cells (human) (UniProt P14784); assay: cell-based or functional assay
UniProt P14784, sequence (P14784 27-551, chain 1 of 2): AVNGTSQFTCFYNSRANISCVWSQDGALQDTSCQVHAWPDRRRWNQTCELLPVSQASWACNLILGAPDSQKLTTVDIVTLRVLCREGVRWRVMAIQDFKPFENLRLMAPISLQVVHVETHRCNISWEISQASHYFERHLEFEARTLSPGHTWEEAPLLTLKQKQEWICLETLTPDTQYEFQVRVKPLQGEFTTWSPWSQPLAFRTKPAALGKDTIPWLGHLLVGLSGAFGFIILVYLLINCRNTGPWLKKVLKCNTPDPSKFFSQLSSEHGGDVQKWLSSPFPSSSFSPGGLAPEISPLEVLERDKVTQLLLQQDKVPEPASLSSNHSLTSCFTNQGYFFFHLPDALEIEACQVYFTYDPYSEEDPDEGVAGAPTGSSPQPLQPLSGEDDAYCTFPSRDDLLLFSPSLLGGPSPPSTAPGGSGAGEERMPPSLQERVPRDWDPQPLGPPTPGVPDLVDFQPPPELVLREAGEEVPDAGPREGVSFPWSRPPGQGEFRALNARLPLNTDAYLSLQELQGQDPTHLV
UniProt P14784, sequence (chain, as listed by the source, chain 2 of 2): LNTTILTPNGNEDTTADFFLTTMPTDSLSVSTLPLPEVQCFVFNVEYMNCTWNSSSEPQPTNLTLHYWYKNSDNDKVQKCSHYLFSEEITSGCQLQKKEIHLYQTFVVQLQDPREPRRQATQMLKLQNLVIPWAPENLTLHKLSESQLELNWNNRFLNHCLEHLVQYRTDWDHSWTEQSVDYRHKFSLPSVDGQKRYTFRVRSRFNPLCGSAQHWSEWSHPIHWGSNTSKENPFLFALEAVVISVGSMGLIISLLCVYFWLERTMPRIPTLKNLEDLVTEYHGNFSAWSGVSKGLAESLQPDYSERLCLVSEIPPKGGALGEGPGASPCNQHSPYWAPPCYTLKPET

UniProt P01589, sequence (P01589 22-272, chain 1 of 3): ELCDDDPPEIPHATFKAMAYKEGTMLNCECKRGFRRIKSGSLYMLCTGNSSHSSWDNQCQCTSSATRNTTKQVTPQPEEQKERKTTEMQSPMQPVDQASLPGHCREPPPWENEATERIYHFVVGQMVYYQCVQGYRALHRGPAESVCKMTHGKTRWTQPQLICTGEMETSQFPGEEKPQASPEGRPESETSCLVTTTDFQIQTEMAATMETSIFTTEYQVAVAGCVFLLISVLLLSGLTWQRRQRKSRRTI
UniProt P01589, sequence (chain, as listed by the source, chain 2 of 3): as the sequence (P14784 27-551, chain 1 of 2) above
UniProt P01589, sequence (chain, as listed by the source, chain 3 of 3): as the sequence (chain, as listed by the source, chain 2 of 2) above

| Fold change from hIL-2 (NK-92) [1] | Fold change from hIL-2 (TF1 + IL-2Rβ) [2] | Binder |
| --- | --- | --- |
| 1 fold | 1 fold | 1H3-hIgG1-L6-hIL-2 (R81A) (protein) heavy: EVQLVESGGGLVQPGRSLKLSCAVSGFTFSDYAMAWVRQAPKKGLEWVATISYDGSRTYYRDSVKGRFTISRDNAKITLYLQMDSLRSEDTATYYCARHGSGYFDYWGQGVMVTVSS[not shown - about 450 residues with a human IgG1 Fc and changes] light: DTVLTQSPALAVSPGERVTISCRASESVRTGVHWYQQKPGQQPKLLIYGASNLESGVPARFSGSGSGTDFTLTIDPVEADDTATYFCQQSWNDPFTFGSGTKLEIKRTVAAPSVFIFPPSDEQLKSGTASVVCLLNNFYPREAKVQWKVDNALQSGNSQESVTEQDSKDSTYSLSSTLTLSKADYEKHKVYACEVTHQGLSSPVTKSFNRGEC |
| 1 fold | 1 fold | 1H3-hIgG1-L6-hIL-2 (H16A) (protein) heavy: EVQLVESGGGLVQPGRSLKLSCAVSGFTFSDYAMAWVRQAPKKGLEWVATISYDGSRTYYRDSVKGRFTISRDNAKITLYLQMDSLRSEDTATYYCARHGSGYFDYWGQGVMVTVSS[not shown - about 450 residues with a human IgG1 Fc and changes] light: DTVLTQSPALAVSPGERVTISCRASESVRTGVHWYQQKPGQQPKLLIYGASNLESGVPARFSGSGSGTDFTLTIDPVEADDTATYFCQQSWNDPFTFGSGTKLEIKRTVAAPSVFIFPPSDEQLKSGTASVVCLLNNFYPREAKVQWKVDNALQSGNSQESVTEQDSKDSTYSLSSTLTLSKADYEKHKVYACEVTHQGLSSPVTKSFNRGEC |
| 1 fold | 1 fold | 1H3-hIgG1-L6-hIL-2 (I92A) (protein) heavy: EVQLVESGGGLVQPGRSLKLSCAVSGFTFSDYAMAWVRQAPKKGLEWVATISYDGSRTYYRDSVKGRFTISRDNAKITLYLQMDSLRSEDTATYYCARHGSGYFDYWGQGVMVTVSS[not shown - about 450 residues with a human IgG1 Fc and changes] light: DTVLTQSPALAVSPGERVTISCRASESVRTGVHWYQQKPGQQPKLLIYGASNLESGVPARFSGSGSGTDFTLTIDPVEADDTATYFCQQSWNDPFTFGSGTKLEIKRTVAAPSVFIFPPSDEQLKSGTASVVCLLNNFYPREAKVQWKVDNALQSGNSQESVTEQDSKDSTYSLSSTLTLSKADYEKHKVYACEVTHQGLSSPVTKSFNRGEC |
| 1 fold | 1 fold | 1H3-hIgG1-L6-hIL-2 (H16Y) (protein) heavy: EVQLVESGGGLVQPGRSLKLSCAVSGFTFSDYAMAWVRQAPKKGLEWVATISYDGSRTYYRDSVKGRFTISRDNAKITLYLQMDSLRSEDTATYYCARHGSGYFDYWGQGVMVTVSS[not shown - about 450 residues with a human IgG1 Fc and changes] light: DTVLTQSPALAVSPGERVTISCRASESVRTGVHWYQQKPGQQPKLLIYGASNLESGVPARFSGSGSGTDFTLTIDPVEADDTATYFCQQSWNDPFTFGSGTKLEIKRTVAAPSVFIFPPSDEQLKSGTASVVCLLNNFYPREAKVQWKVDNALQSGNSQESVTEQDSKDSTYSLSSTLTLSKADYEKHKVYACEVTHQGLSSPVTKSFNRGEC |
| 1 fold | 1 fold | 1H3-hIgG1-L6-hIL-2 (S87A) (protein) heavy: EVQLVESGGGLVQPGRSLKLSCAVSGFTFSDYAMAWVRQAPKKGLEWVATISYDGSRTYYRDSVKGRFTISRDNAKITLYLQMDSLRSEDTATYYCARHGSGYFDYWGQGVMVTVSS[not shown - about 450 residues with a human IgG1 Fc and changes] light: DTVLTQSPALAVSPGERVTISCRASESVRTGVHWYQQKPGQQPKLLIYGASNLESGVPARFSGSGSGTDFTLTIDPVEADDTATYFCQQSWNDPFTFGSGTKLEIKRTVAAPSVFIFPPSDEQLKSGTASVVCLLNNFYPREAKVQWKVDNALQSGNSQESVTEQDSKDSTYSLSSTLTLSKADYEKHKVYACEVTHQGLSSPVTKSFNRGEC |

The next lines start with the binder.

| Binder | Fold change from hIL-2 (NK-92) [1] | Fold change from hIL-2 (TF1 + IL-2Rβ) [2] |
| --- | --- | --- |
| 1H3-hIgG1-L6-hIL-2 (E15A) (protein) heavy: EVQLVESGGGLVQPGRSLKLSCAVSGFTFSDYAMAWVRQAPKKGLEWVATISYDGSRTYYRDSVKGRFTISRDNAKITLYLQMDSLRSEDTATYYCARHGSGYFDYWGQGVMVTVSS[not shown - about 450 residues with a human IgG1 Fc and changes] light: DTVLTQSPALAVSPGERVTISCRASESVRTGVHWYQQKPGQQPKLLIYGASNLESGVPARFSGSGSGTDFTLTIDPVEADDTATYFCQQSWNDPFTFGSGTKLEIKRTVAAPSVFIFPPSDEQLKSGTASVVCLLNNFYPREAKVQWKVDNALQSGNSQESVTEQDSKDSTYSLSSTLTLSKADYEKHKVYACEVTHQGLSSPVTKSFNRGEC | 1 fold | 1 fold |
| 1H3-hIgG1-L6-hIL-2 (E15K) (protein) heavy: EVQLVESGGGLVQPGRSLKLSCAVSGFTFSDYAMAWVRQAPKKGLEWVATISYDGSRTYYRDSVKGRFTISRDNAKITLYLQMDSLRSEDTATYYCARHGSGYFDYWGQGVMVTVSS[not shown - about 450 residues with a human IgG1 Fc and changes] light: DTVLTQSPALAVSPGERVTISCRASESVRTGVHWYQQKPGQQPKLLIYGASNLESGVPARFSGSGSGTDFTLTIDPVEADDTATYFCQQSWNDPFTFGSGTKLEIKRTVAAPSVFIFPPSDEQLKSGTASVVCLLNNFYPREAKVQWKVDNALQSGNSQESVTEQDSKDSTYSLSSTLTLSKADYEKHKVYACEVTHQGLSSPVTKSFNRGEC | 1 fold | 1 fold |
| 1H3-hIgG1-L6-hIL-2 (E15R) (protein) heavy: EVQLVESGGGLVQPGRSLKLSCAVSGFTFSDYAMAWVRQAPKKGLEWVATISYDGSRTYYRDSVKGRFTISRDNAKITLYLQMDSLRSEDTATYYCARHGSGYFDYWGQGVMVTVSS[not shown - about 450 residues with a human IgG1 Fc and changes] light: DTVLTQSPALAVSPGERVTISCRASESVRTGVHWYQQKPGQQPKLLIYGASNLESGVPARFSGSGSGTDFTLTIDPVEADDTATYFCQQSWNDPFTFGSGTKLEIKRTVAAPSVFIFPPSDEQLKSGTASVVCLLNNFYPREAKVQWKVDNALQSGNSQESVTEQDSKDSTYSLSSTLTLSKADYEKHKVYACEVTHQGLSSPVTKSFNRGEC | 1 fold | 1 fold |
| 1H3-hIgG1-L6-hIL-2 (F42D/D20A) (protein) heavy: EVQLVESGGGLVQPGRSLKLSCAVSGFTFSDYAMAWVRQAPKKGLEWVATISYDGSRTYYRDSVKGRFTISRDNAKITLYLQMDSLRSEDTATYYCARHGSGYFDYWGQGVMVTVSS[not shown - about 450 residues with a human IgG1 Fc and changes] light: DTVLTQSPALAVSPGERVTISCRASESVRTGVHWYQQKPGQQPKLLIYGASNLESGVPARFSGSGSGTDFTLTIDPVEADDTATYFCQQSWNDPFTFGSGTKLEIKRTVAAPSVFIFPPSDEQLKSGTASVVCLLNNFYPREAKVQWKVDNALQSGNSQESVTEQDSKDSTYSLSSTLTLSKADYEKHKVYACEVTHQGLSSPVTKSFNRGEC |  | 3 fold |
